Drawing on paper PMC10668032, this text covers binding signal for 172 sequences.

The other results are listed elsewhere or left out. At the low end of the ranking the order means little.

For this experiment, the target named is SIX1-Q177R homeodomain (UniProt Q15475). The experiment can be described thus: universal protein binding microarray. To be noted: Universal all-10-mer PBM (8x60K, AMADID 030236), 300 nM GST-tagged protein, Alexa Fluor 488 anti-GST; buffer, salt, pH and temperature not stated; high values mean tight binding; most listed sequences are background and not binding sites; double strand, one strand shown.
For the sequence CCGGCATC, the binding signal is -0.00753 E-score.

Take CTTTAAAG: the binding signal was -0.281 E-score.

For the sequence CCTAATAG, the binding signal is -0.0484 E-score.

Regarding ACGCGTCG, the binding signal amounted to 0.0532 E-score.

For the sequence AACCCTAC, the binding signal is 0.147 E-score.

For the sequence CCGTGAGG, the binding signal is 0.0995 E-score.

In the case of AAAATAAT, the binding signal is -0.042 E-score.

Take CTAACATC: the binding signal worked out at 0.0617 E-score.

On to AATGTCCA, for which the binding signal is -0.174 E-score.

For TAGACAAA, the binding signal was -0.0331 E-score.

Take AAGTGTGT: the binding signal turned out to be 0.215 E-score.

Consider CACTATCA, for which the binding signal came out at 0.141 E-score.

Regarding TCGCACAA, the binding signal worked out at 0.00025 E-score.

Consider CTCTGCGC, for which the binding signal was -0.0232 E-score.

For GGCCGGCC, the binding signal is -0.231 E-score.

Turning to GTCTGCAC, the binding signal is -0.0613 E-score.

As for ACACCCTG, the binding signal stood at 0.473 E-score.

In the case of AATGCACT, the binding signal is -0.0269 E-score.

In the case of AACGTTTA, the binding signal was -0.248 E-score.

Regarding CATAATGC, the binding signal is -0.12 E-score.

Take ATGTCGAC: the binding signal is -0.168 E-score.

Consider ACTGGGCC, for which the binding signal was -0.133 E-score.

For ACATGGGG, the binding signal turned out to be 0.12 E-score.

Turning to AGACCGGC, the binding signal was -0.103 E-score.

In the case of AATTGAGC, the binding signal was -0.136 E-score.

As to CAGGCCAA, the binding signal was -0.223 E-score.

With ACACGATG, the binding signal came out at 0.391 E-score.

Consider AGTCCGTG, for which the binding signal was determined as 0.0517 E-score.

ATGAACAA: the binding signal was -0.31 E-score.

Consider ATCCATCG, for which the binding signal is -0.137 E-score.

Consider AATTCTCC, for which the binding signal was -0.133 E-score.

CTCTATTC: the binding signal worked out at 0.0954 E-score.

On to GGAACCGA, for which the binding signal is -0.103 E-score.

For the sequence ACATGGTA, the binding signal was -0.00895 E-score.

Regarding GAGCTTCC, the binding signal was -0.181 E-score.

As for ATTCTGCA, the binding signal is -0.212 E-score.

For AACAGGCG, the binding signal came to 0.0273 E-score.

With GGACTCAC, the binding signal is -0.181 E-score.

Consider AGTATCAT, for which the binding signal was determined as 0.259 E-score.

As to CAAAGTTC, the binding signal is -0.172 E-score.

On to GACCCCGA, for which the binding signal is 0.253 E-score.

As to CCTAACTC, the binding signal was -0.0299 E-score.

CATCCGCG: the binding signal was -0.0167 E-score.

Consider CATCCCCC, for which the binding signal stood at 0.14 E-score.

Consider GATCGATA, for which the binding signal amounted to 0.146 E-score.

Take ATTCCAGC: the binding signal was -0.163 E-score.

With CGGTGTAC, the binding signal was 0.487 E-score.

Consider GTTAAAAC, for which the binding signal worked out at 0.0066 E-score.

Turning to ACTCCTGG, the binding signal is 0.213 E-score.

On to CGTCTGGA, for which the binding signal is -0.0703 E-score.

Take CAGTATCG: the binding signal stood at 0.0596 E-score.

As to GTAGGGAA, the binding signal is -0.145 E-score.

As to CAAATGGA, the binding signal is -0.0785 E-score.

On to CACGGGCG, for which the binding signal was found to be 0.204 E-score.

For the sequence AATTATGT, the binding signal was -0.113 E-score.

With GGCAGGGA, the binding signal was -0.159 E-score.

As for ATAATGCG, the binding signal amounted to 0.00166 E-score.

As to TGTAGGAA, the binding signal was determined as 0.139 E-score.

As to CGATTTTC, the binding signal is -0.0842 E-score.

With ACCTGGAC, the binding signal was determined as 0.0986 E-score.

As to TCTGCCCA, the binding signal is -0.221 E-score.

On to CGGAGGAA, for which the binding signal is -0.247 E-score.

With AACGAAGA, the binding signal was -0.158 E-score.

In the case of AGTATAAT, the binding signal is -0.0795 E-score.

With CTAATCTA, the binding signal is -0.151 E-score.

In the case of AAGCAAGG, the binding signal is 0.0547 E-score.

With CATAAATA, the binding signal is -0.145 E-score.

For the sequence AGTCACGG, the binding signal was 0.012 E-score.

For ATCGTGCC, the binding signal was -0.0155 E-score.

Take CACTAAGC: the binding signal stood at 0.0348 E-score.

In the case of CCGACCCA, the binding signal stood at 0.125 E-score.

Take ATAATCGG: the binding signal turned out to be 0.0508 E-score.

AGCCGTAT: the binding signal is -0.0652 E-score.

Regarding CGGTCCTC, the binding signal was -0.266 E-score.

For ACAAGCTA, the binding signal was -0.232 E-score.

Turning to CATGGGCC, the binding signal was -0.148 E-score.

On to TGAAACCA, for which the binding signal is -0.0541 E-score.

AACATAAC: the binding signal was -0.115 E-score.

As to ACGTAGGG, the binding signal is 0.097 E-score.

Consider GCGCACTA, for which the binding signal came to 0.0736 E-score.

GCAGAACC: the binding signal worked out at 0.0481 E-score.

For the sequence AATTCCCA, the binding signal was 0.108 E-score.

Turning to ACAGACCG, the binding signal worked out at 0.13 E-score.

GATGTTGA: the binding signal was -0.187 E-score.

In the case of ACTGGAAA, the binding signal is -0.0387 E-score.

Take GGGCTTTA: the binding signal is -0.278 E-score.

Consider ACGCGTCT, for which the binding signal is -0.0848 E-score.

Turning to GATCACGC, the binding signal was 0.0462 E-score.

In the case of AGGTTTGC, the binding signal was -0.0251 E-score.

In the case of GTCTCGCA, the binding signal is -0.116 E-score.

Take ATTAAAGA: the binding signal is -0.177 E-score.

Consider CACCACCC, for which the binding signal worked out at 0.336 E-score.

Regarding ATTAGAAT, the binding signal was -0.091 E-score.

CCCGAAAG: the binding signal is 0.0237 E-score.

As for AACTTGAT, the binding signal is -0.166 E-score.

Regarding CCCCCACA, the binding signal was found to be 0.262 E-score.

Consider AATGTCTG, for which the binding signal was -0.319 E-score.

For CTGAAGAA, the binding signal is -0.284 E-score.

As for CTGTGCGC, the binding signal is -0.062 E-score.

Consider AATTGCGA, for which the binding signal was -0.219 E-score.

For the sequence ATTACGAG, the binding signal was -0.0304 E-score.

For the sequence CGGAGCTA, the binding signal was -0.103 E-score.

CTGGAAGA: the binding signal stood at 0.00114 E-score.

On to CCGATGCC, for which the binding signal is -0.115 E-score.

AATGCCCA: the binding signal was -0.0202 E-score.

GCCATCCC: the binding signal was determined as 0.0164 E-score.

For AAGCCACG, the binding signal is -0.213 E-score.

With GCCTCAGA, the binding signal is -0.134 E-score.

As for TCCGTTCA, the binding signal is -0.131 E-score.

With GGGCCTAC, the binding signal was -0.102 E-score.

AACAATCG: the binding signal is -0.123 E-score.

On to AGTTAAGA, for which the binding signal turned out to be 0.155 E-score.

Take AGCGACAA: the binding signal was -0.131 E-score.

In the case of ACCTTAAC, the binding signal was -0.0349 E-score.

Regarding AGGCTAAA, the binding signal was -0.182 E-score.

Regarding GGGCTTAA, the binding signal was -0.0769 E-score.

Regarding CCCACTGA, the binding signal is 0.12 E-score.

For the sequence AAACGTGT, the binding signal came to 0.303 E-score.

Turning to TTAGTCAA, the binding signal was -0.144 E-score.

In the case of CATGATCC, the binding signal came to 0.0836 E-score.

Regarding AAACCCCA, the binding signal is 0.143 E-score.

As for CAAACGTC, the binding signal was -0.294 E-score.

Turning to CCGGCCTA, the binding signal is 0.0361 E-score.

CAGGGACC: the binding signal was -0.273 E-score.

For the sequence ATATGAGG, the binding signal was -0.256 E-score.

Turning to AAGAAGGA, the binding signal was determined as 0.0116 E-score.

For the sequence CATGTGTC, the binding signal amounted to 0.19 E-score.

Consider AGTTACGG, for which the binding signal was -0.0278 E-score.

For the sequence CTTAGAGC, the binding signal was -0.0633 E-score.

Regarding AAATGAGA, the binding signal is -0.0756 E-score.

For AGGATGCA, the binding signal was -0.0849 E-score.

Turning to GGGGGCTA, the binding signal stood at 0.126 E-score.

CAATAATC: the binding signal is -0.0519 E-score.

Consider GAGCGTAC, for which the binding signal is -0.00185 E-score.

For the sequence CTAACAGA, the binding signal was -0.186 E-score.

Consider GTTACTGA, for which the binding signal was 0.102 E-score.

With TTCTAGAA, the binding signal is -0.0414 E-score.

For AACCTTTC, the binding signal is 0.0505 E-score.

As for CTGGCAGC, the binding signal was -0.222 E-score.

For the sequence ATCCCGTG, the binding signal was 0.228 E-score.

Take CCCGCTCA: the binding signal is 0.12 E-score.

Take ATTCCACC: the binding signal stood at 0.0823 E-score.

GCTAGACA: the binding signal is -0.0185 E-score.

As for AAAAGACG, the binding signal was -0.142 E-score.

On to AATGTCGG, for which the binding signal was -0.0152 E-score.

In the case of ATTGAGAA, the binding signal was -0.214 E-score.

As to CCCCGGGC, the binding signal stood at 0.114 E-score.

Regarding ACGCCTTC, the binding signal was -0.0324 E-score.

For GGTTATGA, the binding signal is 0.152 E-score.

Consider AGCCGTTG, for which the binding signal was -0.159 E-score.

In the case of GCCTGCGC, the binding signal was -0.191 E-score.

In the case of AGTTATAG, the binding signal came to 0.0466 E-score.

With AACCCCGT, the binding signal turned out to be 0.174 E-score.

For CCTGGTCC, the binding signal was -0.158 E-score.

As for ATAACCAC, the binding signal worked out at 0.0157 E-score.

Consider AATGGCTC, for which the binding signal was -0.0391 E-score.

As to GACATAAC, the binding signal is -0.0279 E-score.

As for CATCCGCA, the binding signal is -0.139 E-score.

CCTCTTGA: the binding signal was -0.0566 E-score.

ATTCGGAC: the binding signal is -0.0513 E-score.

For AAGGTAAC, the binding signal came to 0.0528 E-score.

Turning to CAACTAGC, the binding signal was -0.0815 E-score.

Consider CTGTTTGA, for which the binding signal is -0.0403 E-score.

For AGGATGTA, the binding signal is -0.0421 E-score.

For CTATTCGC, the binding signal is -0.00226 E-score.

For GTTCCTAA, the binding signal is 0.139 E-score.

For the sequence CTCGGGTA, the binding signal turned out to be 0.168 E-score.

In the case of GGTTGAAC, the binding signal is -0.00733 E-score.

With GATTTGTA, the binding signal is -0.125 E-score.

Consider AAGTCAAG, for which the binding signal is -0.185 E-score.

In the case of ATTGTACC, the binding signal is -0.0772 E-score.

Regarding CGGTTGGA, the binding signal was -0.0539 E-score.
